# Data: PubChem BioAssay AID504332 (National Center for Advancing Translational Sciences (NCATS), 2011)
# Several values for one entry are separate records, joined by “and”; a condition that tells them apart may be missing. Identical values can stand only once. Among all 350,000 compounds or so, about 31,000 (8.9%) were called active. The shares of active, inactive and inconclusive entries below differ from those in the screen. Calls follow the shape of the dose curve; as a rule, active = well fitted inhibition curve with a large enough effect; inconclusive = small, poorly fitted or top-dose-only effect; inactive = no such curve, though single readings can be large or run the other way. A potency beside an inconclusive call is a rough fit, not a confirmed value. A structure can be active in one record and inactive in another.
# Molecular target: Histone-lysine N-methyltransferase EHMT2 (Homo sapiens) (UniProt Q96KQ7)
# Assay: qHTS Assay for Inhibitors of Histone Lysine Methyltransferase G9a; also: nearly all actives have a fitted effect of over 75% in size
# Conditions: G9a H3K9 monomethylation, AlphaScreen, 2 h; activity, negative = inhibition: at 59 µM (top of the series) unless noted
# Method in brief: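 Methyltransferase reactions run at room temperature for 2 h (20 nM enzyme, 500 nM biotin-H3K9 peptide, 20 uM SAM) after a 15 min compound preincubation; product detected by AlphaScreen beads and anti-H3K9me1 antibody.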
# % is scaled to controls: 0 for no effect and ±100 for the full control effect; potency is read from the fitted curve at half-maximal effect; tags tell the direction and shape of the fitted curve.
# Sequence of UniProt Q96KQ7 (Q96KQ7 whole entry, looked up): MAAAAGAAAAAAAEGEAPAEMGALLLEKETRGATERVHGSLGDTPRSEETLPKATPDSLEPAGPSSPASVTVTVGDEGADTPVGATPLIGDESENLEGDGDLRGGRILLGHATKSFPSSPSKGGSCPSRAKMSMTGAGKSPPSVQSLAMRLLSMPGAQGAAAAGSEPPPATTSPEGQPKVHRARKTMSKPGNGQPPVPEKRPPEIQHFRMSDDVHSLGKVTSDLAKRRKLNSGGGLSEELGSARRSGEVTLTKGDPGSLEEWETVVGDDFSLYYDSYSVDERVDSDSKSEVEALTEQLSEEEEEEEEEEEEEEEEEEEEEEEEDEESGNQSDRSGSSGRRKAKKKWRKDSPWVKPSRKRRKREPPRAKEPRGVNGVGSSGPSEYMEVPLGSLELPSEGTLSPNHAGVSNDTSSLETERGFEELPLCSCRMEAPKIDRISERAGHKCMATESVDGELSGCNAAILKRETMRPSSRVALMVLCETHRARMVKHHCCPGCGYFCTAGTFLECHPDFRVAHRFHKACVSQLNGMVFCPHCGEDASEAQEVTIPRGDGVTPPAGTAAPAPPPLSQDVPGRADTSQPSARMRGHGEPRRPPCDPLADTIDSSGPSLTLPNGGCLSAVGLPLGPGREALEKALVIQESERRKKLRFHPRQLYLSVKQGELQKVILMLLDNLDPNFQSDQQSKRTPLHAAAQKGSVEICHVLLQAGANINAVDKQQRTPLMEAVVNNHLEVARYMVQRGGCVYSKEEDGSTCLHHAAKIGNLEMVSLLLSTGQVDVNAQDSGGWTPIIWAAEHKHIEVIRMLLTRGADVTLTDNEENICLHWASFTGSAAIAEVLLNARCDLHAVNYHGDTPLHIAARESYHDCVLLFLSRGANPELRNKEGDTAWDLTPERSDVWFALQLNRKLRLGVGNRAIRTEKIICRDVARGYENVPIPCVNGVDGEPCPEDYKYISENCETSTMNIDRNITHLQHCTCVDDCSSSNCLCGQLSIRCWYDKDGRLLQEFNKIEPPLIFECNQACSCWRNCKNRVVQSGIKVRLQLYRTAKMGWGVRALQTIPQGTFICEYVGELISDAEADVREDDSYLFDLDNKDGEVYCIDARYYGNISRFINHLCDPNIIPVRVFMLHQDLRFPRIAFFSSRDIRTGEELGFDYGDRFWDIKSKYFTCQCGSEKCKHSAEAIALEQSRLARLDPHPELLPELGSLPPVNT
SMILES,Potency,"activity, negative = inhibition"
O=[P+](Cc1ccccc1)Cc1ccccc1,inactive,
N#CC(C#N)=NNc1ccc(S(=O)(=O)N2CCCC2)cc1,"inconclusive: 31.6 µM [inhibitor, single point]",
C=CCN1CC[C@]23c4c5ccc(O)c4O[C@H]2C(=O)CC[C@@]3(O)[C@H]1C5,active: 39.8 µM,
CCOC(=O)c1ccc(N2C(=O)CC(N3CCC(O)(c4ccc(Br)cc4)CC3)C2=O)cc1 (centres undefined),active: 50.1 µM,
O=c1[nH]c(=S)[nH]c(O)c1N=Nc1cccc(S(=O)(=O)N2CCOCC2)c1,active: 50.1 µM,
CCN1CCN(Cc2nc3ccc([N+](=O)[O-])cc3c(=O)n2-c2ccccc2F)CC1,"inconclusive: 50.1 µM [inhibitor, partial curve]",
CC(=O)OC1(c2ccccc2)CCN(C)C2CCCCC21 (centres undefined),"inconclusive: 2.51 µM [inhibitor, partial curve, poor fit]",
COc1cc2[nH]c(=O)n(-c3ccccc3)c(=O)c2cc1OC,inactive,
Cc1ccc(/C=C2\C(=O)NC(=O)N(Cc3ccccc3Cl)C2=O)o1,active: 12.6 µM,
CCCCC/C=C\C/C=C\C/C=C\C/C=C\CCCC(=O)NCCCl,"inconclusive: 7.94 µM [inhibitor, partial curve]",
O=C(Cc1ccccc1)N1CCN(CCCc2ccccc2)CC1,"inconclusive: 28.2 µM [inhibitor, single point]",
CCn1c(NN=O)nc2ccccc21,"inconclusive: 35.5 µM [inhibitor, partial curve, poor fit]",
CCCC(C)C1(CC)C(=O)NC(=O)NC1=O (centres undefined),,inactive: -43.4% [at 2.33 µM]
COc1cccc(N2C(=O)NC(=O)/C(=C/c3ccc4c(c3)Cc3ccccc3-4)C2=O)c1,active: 7.08 µM,
Oc1ccccc1C1NCc2ccccc2-n2cccc21 (centres undefined),"inconclusive: 56.2 µM [inhibitor, partial curve, poor fit]",
O=C(CN1CC=C(c2ccccc2)CC1)NC(=O)NCc1ccccc1,"inconclusive: 56.2 µM [inhibitor, partial curve, poor fit]",
O=C1/C(=C/c2cccc([N+](=O)[O-])c2)N2CCC1CC2,"inconclusive: 10 µM [inhibitor, partial curve]",
CCN[C@]1(c2cccs2)CCCCC1=O,inactive,
N#CC(C#N)=NNc1ccc(S(N)(=O)=O)cc1,,inactive: -0.622% [at 12.7 µM]
CCN(CC)C(=O)Oc1ccc(OC(=O)N(CC)CC)cc1,"inconclusive: 56.2 µM [inhibitor, partial curve]",
COc1ccccc1C(=O)Nc1ccc2c(c1)CC1(C(=O)N(C)C(=O)N(C)C1=O)C1CCCN21 (centres undefined),active: 31.6 µM,
Cc1cccc(Cn2c(SCc3ccc(C(=O)NC4CCCCC4)cc3)nc3cccnc32)c1,"inconclusive: 10 µM [inhibitor, partial curve]",
O=C1NC(=O)N(Cc2ccccc2)C(=O)/C1=C/c1cnc(-c2ccccc2)nc1,active: 10 µM,

SMILES,Potency,"activity, negative = inhibition"
COc1cccc(N2CCN(CC(=O)Nc3ccc(SC(F)F)cc3)CC2)c1,"inconclusive: 79.4 µM [inhibitor, single point]",
Cc1oc(-c2ccccc2)nc1CN1C(=O)C(C)N=C(c2ccccc2F)c2cc(Cl)ccc21 (centres undefined),"inconclusive: 89.1 µM [inhibitor, single point]",
Oc1ccc(/C=N/NP(=S)(c2ccccc2)c2ccccc2)cc1,"inconclusive: 2.82 µM [inhibitor, partial curve, poor fit]",
COC(=O)C1=C(c2ccc(OC(F)(F)F)cc2)C[C@@H]2CC[C@H]1N2C(=O)N1CCOCC1,,inactive: 7.57% [at 2.33 µM]
CC(=O)N1CCN(Cc2ccc(Cl)nc2)CC1,,inactive: -43.5% [at 2.33 µM]
CSc1ncc(/C=C2/C(=O)NC(=O)N(c3ccc(Cl)cc3)C2=O)cn1,active: 8.91 µM,
CN1C(=O)C(Cc2ccsc2)C(=O)N(C)C1=O,active: 11.2 µM,
O=C(Cn1c(=O)oc2cc(S(=O)(=O)N3CCCC3)ccc21)N1CCN(c2ccccc2F)CC1,"inconclusive: 89.1 µM [inhibitor, single point]",
Cc1ccc(/C=C/C(=O)C2C(=O)c3ccccc3C2=O)cc1,"inconclusive: 28.2 µM [inhibitor, partial curve, poor fit]",
Cc1cc(C)cc(N2C(=O)NC(=O)/C(=C/c3cccn3-c3ccc(Cl)cc3)C2=O)c1,active: 31.6 µM,
CCOc1ccc(-c2cc(C)n3nc(C(=O)Nc4ccc(C)c(C)c4)cc3n2)cc1,"inconclusive: 35.5 µM [inhibitor, single point]",
O=c1[nH]c(=S)n(-c2ccccc2F)c(O)c1C=NCc1ccco1,inactive,
N#CC(C#N)=Cc1ccc(O)c(O)c1,active: 35.5 µM and active: 8.91 µM and active: 8.44 µM,
CC(C)[C@H]1C(=O)N2CCC[C@H]2[C@]2(O)O[C@](NC(=O)[C@@H]3C=C4c5cccc6[nH]cc(c56)C[C@H]4N(C)C3)(C(C)C)C(=O)N12,active: 10 µM,
CC(=O)C1CCC2C3CCC4CC(O)CCC4(C)C3CC(O)C12C (centres undefined),,inactive: -45.2% [at 2.33 µM]
CCCCCCC(=O)N/N=C/c1c(O)n(CCc2ccccc2)c(=O)[nH]c1=O,inactive,
O=c1[nH]c(=O)n(CCc2ccc(F)cc2)c(O)c1C=NCCCn1ccnc1,"inconclusive: 3.55 µM [inhibitor, single point]",
O=C1NC(=O)C(=CN2CCc3ccccc32)C(=O)N1,active: 12.6 µM,
CCOc1cc(C2NCc3ccccc3-n3cccc32)ccc1O (centres undefined),"inconclusive: 56.2 µM [inhibitor, partial curve, poor fit]",
COc1ccc2[nH]c3c(c2c1)CCNC3,"inconclusive: 2.51 µM [inhibitor, partial curve]",
O=C1NC(=O)N(c2ccc3c(c2)OCO3)C(=O)/C1=C\c1ccc(-c2ccccc2C(=O)O)o1,active: 10 µM,
CN(C)[C@@H]1C(=O)C(C(N)=O)=C(O)[C@@]2(O)C(=O)C3=C(O)c4c(O)cccc4[C@@](C)(O)C3C[C@@H]12 (some centres undefined),active: 10 µM,
Cc1cccc(CN2CCc3nc(N4CCN(c5ccccn5)CC4)ncc3C2)c1,"inconclusive: 20 µM [inhibitor, partial curve, poor fit]",

SMILES,Potency,"activity, negative = inhibition"
CCOP(=O)(OCC)C1(O)C(=O)Nc2ccccc21 (centres undefined),inactive,
N=Cc1c(O)n(-c2ccc(C34CC5CC(CC(C5)C3)C4)cc2)c(=O)[nH]c1=O,"inconclusive: 89.1 µM [inhibitor, single point]",
COc1ccc(C2=NCC(=O)N(CC(=O)NCc3ccco3)c3sc4c(c32)CCCC4)cc1OC,active: 15.8 µM,
CCOc1cc(CNCCc2cccc(F)c2)ccc1OC,active: 22.4 µM,
Cc1cccc(C)c1OCC(=O)Nc1ccc(Cl)cc1C(=O)c1ccccc1,"inconclusive: 1.26 µM [inhibitor, partial curve]",
COc1ccc(N2C(=O)/C(=C/C=C/c3ccccc3[N+](=O)[O-])C(=O)NC2=S)cc1,active: 6.31 µM,
CC(C)C[C@H](NC(=O)[C@H](Cc1ccccc1)NC(=O)CNC(=O)[C@H](CO)NC(=O)[C@@H](N)Cc1ccc(O)cc1)C(=O)N[C@H](C(=O)O)[C@H](C)O,inactive,
O=CC(Cl)P(=O)(N1CCCCC1)N1CCCCC1 (centres undefined),inactive,
CCn1c(O)c(/C=N/NC(=O)c2ccccc2)c(=O)[nH]c1=S,inactive,
Cc1ccc(NC(=O)COc2ccc(-n3ccnc3)cc2)cc1Cl,"inconclusive: 31.6 µM [inhibitor, partial curve, poor fit]",
O=C(COc1ccccc1[N+](=O)[O-])N1CCN(CCc2ccncc2)CC1,inactive,
COC1CCCCC1NCCc1ccccc1 (centres undefined),"inconclusive: 17.8 µM [inhibitor, partial curve, poor fit]",
CC(C)C[C@H]1C(=O)N2CCCC2[C@]2(O)O[C@](NC(=O)[C@@H]3C=C4c5cccc6[nH]cc(c56)CC4N(C)C3)(C(C)C)C(=O)N12 (some centres undefined),active: 39.8 µM,
Cc1ccc(N2C(=O)NC(=O)/C(=C\c3cc(C)n(-c4ccc(C(=O)O)cc4)c3C)C2=O)cc1,"inconclusive: 89.1 µM [inhibitor, single point]",
Cc1ccc(-n2c(O)c(/C=N/N3CCCCCC3)c(=O)[nH]c2=O)cc1C,"inconclusive: 70.8 µM [inhibitor, partial curve]",
S=C(S)N1CCNCC1,"inconclusive: 3.16 µM [inhibitor, partial curve, poor fit]",
CCOC(=O)c1cc(C)n(CCc2cnc[nH]2)c1C,"inconclusive: 0.631 µM [inhibitor, full curve]",
CCOC(=O)c1ccc(N2C(=O)c3n[nH]c(-c4cccs4)c3C2c2ccc(C(C)(C)C)cc2)cc1 (centres undefined),"inconclusive: 25.1 µM [inhibitor, partial curve, poor fit]",
CN1CCC(O)(c2ccc(F)cc2)C(C(=O)c2ccc(F)cc2)C1 (centres undefined),"inconclusive: 2 µM [inhibitor, partial curve, poor fit]",
Cc1ccc(-n2nc(C)c3c2OC(N)=C(C#N)C3c2cccs2)cc1 (centres undefined),active: 35.5 µM,
COc1ccc(CN2CCNCC2)cc1,"inconclusive: 79.4 µM [inhibitor, single point]",
CC1COC2=C1C(=O)C(=O)c1c2ccc2c1CCCC2(C)C (centres undefined),active: 7.08 µM,
O=C(c1cccs1)N1C2CCC1CC(O)(c1cccnc1)C2 (centres undefined),"inconclusive: 89.1 µM [inhibitor, partial curve, poor fit]",
